Biological target: the molecule itself
Test: SEC + native gel or EMSA

B1: TER ATPase (transitional endoplasmic reticulum ATPase of rat liver) (enzyme)
chain: not shown
- stoichiometry N: 6
